In article PMC6488650:
No constants are given. Whether binding was seen depends on the method and setting. In cells and extracts the contact can be indirect. Some binding calls cover weakened binding; strength is not graded here.

Amino acid sequences for entries named in this document (tags omitted). A change or cut given only in a name is not applied to a line headed by its entry. Residues count along the entry.
UniProt Q96D31: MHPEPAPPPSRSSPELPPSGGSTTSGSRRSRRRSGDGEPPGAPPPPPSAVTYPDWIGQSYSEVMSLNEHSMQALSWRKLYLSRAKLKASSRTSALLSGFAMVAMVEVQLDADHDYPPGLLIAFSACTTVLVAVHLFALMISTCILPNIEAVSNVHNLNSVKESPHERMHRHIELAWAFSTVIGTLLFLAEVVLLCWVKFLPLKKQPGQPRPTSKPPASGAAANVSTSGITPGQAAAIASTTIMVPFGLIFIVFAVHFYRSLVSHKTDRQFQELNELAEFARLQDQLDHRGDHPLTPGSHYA
ORAI1β-CFP: residues 64-301 of Q96D31
UniProt P40146: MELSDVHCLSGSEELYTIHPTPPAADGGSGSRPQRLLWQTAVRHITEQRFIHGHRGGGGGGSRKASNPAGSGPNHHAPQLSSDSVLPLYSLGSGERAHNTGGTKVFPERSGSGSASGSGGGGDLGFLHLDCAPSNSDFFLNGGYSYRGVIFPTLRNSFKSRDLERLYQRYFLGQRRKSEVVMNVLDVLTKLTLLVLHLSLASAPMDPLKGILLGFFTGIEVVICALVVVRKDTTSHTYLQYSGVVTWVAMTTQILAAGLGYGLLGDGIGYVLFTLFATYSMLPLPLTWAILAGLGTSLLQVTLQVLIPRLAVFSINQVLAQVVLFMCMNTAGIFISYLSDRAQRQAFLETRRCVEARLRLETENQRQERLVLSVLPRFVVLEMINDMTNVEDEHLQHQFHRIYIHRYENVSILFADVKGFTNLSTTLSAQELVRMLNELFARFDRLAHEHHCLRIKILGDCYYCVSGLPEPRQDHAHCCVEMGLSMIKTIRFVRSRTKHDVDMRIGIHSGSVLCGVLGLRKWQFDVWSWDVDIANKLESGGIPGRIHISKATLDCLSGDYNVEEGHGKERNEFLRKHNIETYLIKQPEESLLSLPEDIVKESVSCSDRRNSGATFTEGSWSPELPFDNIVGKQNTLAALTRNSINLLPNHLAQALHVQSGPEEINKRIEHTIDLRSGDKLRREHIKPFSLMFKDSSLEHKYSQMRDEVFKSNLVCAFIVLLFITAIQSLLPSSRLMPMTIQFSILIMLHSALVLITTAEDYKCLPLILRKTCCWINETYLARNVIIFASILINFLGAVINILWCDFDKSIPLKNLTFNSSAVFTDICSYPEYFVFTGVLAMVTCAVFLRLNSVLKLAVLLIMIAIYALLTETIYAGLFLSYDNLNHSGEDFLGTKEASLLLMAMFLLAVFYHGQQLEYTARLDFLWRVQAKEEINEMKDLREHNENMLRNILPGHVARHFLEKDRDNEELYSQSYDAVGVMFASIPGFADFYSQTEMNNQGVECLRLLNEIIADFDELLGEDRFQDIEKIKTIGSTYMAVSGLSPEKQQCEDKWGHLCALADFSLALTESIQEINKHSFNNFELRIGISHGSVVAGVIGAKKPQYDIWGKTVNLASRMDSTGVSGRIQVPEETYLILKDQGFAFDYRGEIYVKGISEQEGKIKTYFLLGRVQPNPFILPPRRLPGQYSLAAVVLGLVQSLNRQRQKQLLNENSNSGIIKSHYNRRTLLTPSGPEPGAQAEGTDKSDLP
UniProt P24588: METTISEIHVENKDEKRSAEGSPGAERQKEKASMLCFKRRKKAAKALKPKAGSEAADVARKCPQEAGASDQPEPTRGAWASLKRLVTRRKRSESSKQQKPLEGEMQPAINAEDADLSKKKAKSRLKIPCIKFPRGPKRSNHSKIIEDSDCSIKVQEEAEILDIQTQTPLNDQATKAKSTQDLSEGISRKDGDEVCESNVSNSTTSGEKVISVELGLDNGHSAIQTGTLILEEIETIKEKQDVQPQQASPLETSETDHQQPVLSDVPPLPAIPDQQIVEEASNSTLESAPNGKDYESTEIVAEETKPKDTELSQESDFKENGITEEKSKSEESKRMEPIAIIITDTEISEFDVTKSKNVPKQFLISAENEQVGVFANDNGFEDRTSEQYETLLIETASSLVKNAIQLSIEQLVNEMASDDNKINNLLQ

Experiments:
eYFP-ORAI1 = eYFP-ORAI1 (UniProt Q96D31); assay: FRET or BRET; E-FRET microscopy in cells with N-terminally tagged YFP-ORAI1/β and CFP-AC8/AKAP; room temperature; regions close to the plasma membrane; images every 10 min for 40 min, before and after carbachol (500 µM)
eYFP-ORAI1β = eYFP-ORAI1β (UniProt Q96D31); assay: as above
ORAI1-CFP = ORAI1-CFP (UniProt Q96D31); assay: co-IP; called a pull-down assay by the paper; Dynabeads coated with mouse anti-GFP antibody precipitate ORAI1-CFP or ORAI1β-CFP from RIPA lysates of ORAI1-KO cells; untagged AC8 detected by western blot with anti-AC8; all steps at 4 °C
ORAI1β-CFP = ORAI1β-CFP (UniProt Q96D31); assay: as above

| binding (eYFP-ORAI1) | binding (eYFP-ORAI1β) | binding (ORAI1-CFP) | binding (ORAI1β-CFP) | Substance |
| --- | --- | --- | --- | --- |
| binds | – | – | – | CFP-AC8 (from UniProt P40146 1-1248) (enzyme) |
| binds | no binding | – | – | CFP-AKAP79 (from UniProt P24588 1-427) |
| – | – | binds | no binding | adenylyl cyclase 8 (AC8), untagged (from UniProt P40146 1-1248) (enzyme) |
